Results reported in the supplement of paper PMC8728848.
Some of the results follow.

How the values were obtained:
Assay in all cases: glycan array binding signal (z-score within array); higher = stronger binding
Settings in all cases: glycan notation: IUPAC condensed, linker removed; mutation: R144S
[1] = target: Neu5Ac(a2-3)Gal(b1-3)GlcNAc(b1-3)Gal(b1-3)GlcNAc
Procedure, shortened: (§1)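 Glycan array binding is given as a within-array Z-score, which can be read as non-binding when negative. The arrays, 3228 of them, came from the Consortium for Functional Glycomics database and were retained only where the protein sequence was available. Z-scores were averaged across arrays of the same protein sequence at different concentrations or buffers and across linkers.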

[2] = target: Neu5Ac(a2-3)Gal(b1-3)GlcNAc(b1-3)Gal(b1-4)GlcNAc
Procedure, shortened: as §1

[3] = target: Neu5Ac(a2-3)Gal(b1-3)GlcNAc(b1-3)GalNAc
Procedure, shortened: as §1

[4] = target: Neu5Ac(a2-3)Gal(b1-3)GlcNAc6S
Procedure, shortened: as §1

[5] = target: Neu5Ac(a2-3)Gal(b1-3)[Fuc(a1-4)]GlcNAc
Procedure, shortened: as §1

[6] = target: Neu5Ac(a2-3)Gal(b1-3)[Fuc(a1-4)]GlcNAc(b1-3)Gal(b1-3)[Fuc(a1-4)]GlcNAc
Procedure, shortened: as §1

[7] = target: Neu5Ac(a2-3)Gal(b1-3)[Fuc(a1-4)]GlcNAc(b1-3)Gal(b1-4)[Fuc(a1-3)]GlcNAc
Procedure, shortened: as §1

[8] = target: Neu5Ac(a2-3)Gal(b1-3)[Neu5Ac(a2-3)Gal(b1-4)]GlcNAc
Procedure, shortened: as §1

[9] = target: Neu5Ac(a2-3)Gal(b1-3)[Neu5Ac(a2-6)]GalNAc
Procedure, shortened: as §1

Neu5Ac(a2-3)Gal(b1-4)Glc = target: Neu5Ac(a2-3)Gal(b1-4)Glc
Procedure, shortened: as §1

[10] = target: Neu5Ac(a2-3)Gal(b1-4)GlcNAc
Procedure, shortened: as §1

[11] = target: Neu5Ac(a2-3)Gal(b1-4)GlcNAc(b1-2)Man(a1-3)[GlcNAc(b1-2)Man(b1-4)GlcNAc(b1-2)Man(a1-6)]Man(b1-4)GlcNAc(b1-4)GlcNAc
Procedure, shortened: as §1

[12] = target: Neu5Ac(a2-3)Gal(b1-4)GlcNAc(b1-2)Man(a1-3)[Neu5Ac(a2-6)Gal(b1-4)GlcNAc(b1-2)Man(a1-6)]Man(b1-4)GlcNAc(b1-4)GlcNAc
Procedure, shortened: as §1

[13] = target: Neu5Ac(a2-3)Gal(b1-4)GlcNAc(b1-3)Gal(b1-3)GlcNAc
Procedure, shortened: as §1

[14] = target: Neu5Ac(a2-3)Gal(b1-4)GlcNAc(b1-3)Gal(b1-4)GlcNAc
Procedure, shortened: as §1

[15] = target: Neu5Ac(a2-3)Gal(b1-4)GlcNAc(b1-3)Gal(b1-4)GlcNAc(b1-3)Gal(b1-4)GlcNAc
Procedure, shortened: as §1

[16] = target: Neu5Ac(a2-3)Gal(b1-4)GlcNAc(b1-3)Gal(b1-4)[Fuc(a1-3)]GlcNAc
Procedure, shortened: as §1

[17] = target: Neu5Ac(a2-3)Gal(b1-4)GlcNAc(b1-3)GalNAc
Procedure, shortened: as §1

[18] = target: Neu5Ac(a2-3)Gal(b1-4)GlcNAc(b1-6)[Gal(b1-3)]GalNAc
Procedure, shortened: as §1

[19] = target: Neu5Ac(a2-3)Gal(b1-4)GlcNAc(b1-6)[Neu5Ac(a2-3)Gal(b1-3)]GalNAc
Procedure, shortened: as §1

[20] = target: Neu5Ac(a2-3)Gal(b1-4)GlcNAc6S
Procedure, shortened: as §1

[21] = target: Neu5Ac(a2-3)Gal(b1-4)[Fuc(a1-3)]GlcNAc
Procedure, shortened: as §1

[22] = target: Neu5Ac(a2-3)Gal(b1-4)[Fuc(a1-3)]GlcNAc(b1-3)Gal
Procedure, shortened: as §1

[23] = target: Neu5Ac(a2-3)Gal(b1-4)[Fuc(a1-3)]GlcNAc(b1-3)Gal(b1-4)GlcNAc
Procedure, shortened: as §1

[24] = target: Neu5Ac(a2-3)Gal(b1-4)[Fuc(a1-3)]GlcNAc(b1-3)Gal(b1-4)[Fuc(a1-3)]GlcNAc(b1-3)Gal(b1-4)[Fuc(a1-3)]GlcNAc
Procedure, shortened: as §1

[25] = target: Neu5Ac(a2-3)Gal(b1-4)[Fuc(a1-3)]GlcNAc(b1-3)GalNAc
Procedure, shortened: as §1

[26] = target: Neu5Ac(a2-3)Gal(b1-4)[Fuc(a1-3)]GlcNAc(b1-6)[Gal(b1-3)]GalNAc
Procedure, shortened: as §1

[27] = target: Neu5Ac(a2-3)Gal(b1-4)[Fuc(a1-3)]GlcNAc(b1-6)[Neu5Ac(a2-3)Gal(b1-3)]GalNAc
Procedure, shortened: as §1

[28] = target: Neu5Ac(a2-3)Gal(b1-4)[Fuc(a1-3)]GlcNAc6S
Procedure, shortened: as §1

[29] = target: Neu5Ac(a2-3)Gal6S(b1-4)GlcNAc
Procedure, shortened: as §1

[30] = target: Neu5Ac(a2-3)Gal6S(b1-4)[Fuc(a1-3)]GlcNAc
Procedure, shortened: as §1

Neu5Ac(a2-3)GalNAc = target: Neu5Ac(a2-3)GalNAc
Procedure, shortened: as §1

[31] = target: Neu5Ac(a2-3)GalNAc(b1-4)GlcNAc
Procedure, shortened: as §1

[32] = target: Neu5Ac(a2-3)[GalNAc(b1-4)]Gal(b1-4)Glc
Procedure, shortened: as §1

[33] = target: Neu5Ac(a2-3)[GalNAc(b1-4)]Gal(b1-4)GlcNAc
Procedure, shortened: as §1

[34] = target: Neu5Ac(a2-3)[GalNAc(b1-4)]Gal(b1-4)GlcNAc(b1-3)GalNAc
Procedure, shortened: as §1

[35] = target: Neu5Ac(a2-3)[Neu5Ac(a2-6)]GalNAc
Procedure, shortened: as §1

Neu5Ac(a2-6)Gal = target: Neu5Ac(a2-6)Gal
Procedure, shortened: as §1

Neu5Ac(a2-6)Gal(b1-4)Glc = target: Neu5Ac(a2-6)Gal(b1-4)Glc
Procedure, shortened: as §1

[36] = target: Neu5Ac(a2-6)Gal(b1-4)GlcNAc
Procedure, shortened: as §1

B1: Gal 3 (Homo sapiens), P17931 (protein)
chain: MADNFSLHDALSGSGNPNPQGWPGAWGNQPAGAGGYPGASYPGAYPGQAPPGAYPGQAPPGAYHGAPGAYPGAPAPGVYPGPPSGPGAYPSSGQPSAPGAYPATGPYGAPAGPLIVPYNLPLPGGVVPRMLITILGTVKPNANSILDFQRGNDVAFHFNPRFNENNRRVIVCNTKLDNNWGREERQSVFPFESGKPFKIQVLVEPDHFKVAVNDAHLLQYNHRVKKLNEISKLGISGDIDLTSASYTMI
- glycan array binding signal (z-score) [1]: -0.356
- glycan array binding signal (z-score) [2]: -0.365
- glycan array binding signal (z-score) [3]: -0.363
- glycan array binding signal (z-score) [4]: -0.365
- glycan array binding signal (z-score) [5]: -0.351
- glycan array binding signal (z-score) [6]: -0.361
- glycan array binding signal (z-score) [7]: -0.364
- glycan array binding signal (z-score) [8]: -0.314
- glycan array binding signal (z-score) [9]: -0.36
- glycan array binding signal (z-score) (Neu5Ac(a2-3)Gal(b1-4)Glc): -0.355
- glycan array binding signal (z-score) [10]: -0.361
- glycan array binding signal (z-score) [11]: -0.354
- glycan array binding signal (z-score) [12]: -0.357
- glycan array binding signal (z-score) [13]: -0.361
- glycan array binding signal (z-score) [14]: -0.359
- glycan array binding signal (z-score) [15]: 0.844
- glycan array binding signal (z-score) [16]: -0.36
- glycan array binding signal (z-score) [17]: -0.36
- glycan array binding signal (z-score) [18]: -0.362
- glycan array binding signal (z-score) [19]: -0.357
- glycan array binding signal (z-score) [20]: -0.365
- glycan array binding signal (z-score) [21]: -0.36
- glycan array binding signal (z-score) [22]: -0.371
- glycan array binding signal (z-score) [23]: -0.353
- glycan array binding signal (z-score) [24]: -0.361
- glycan array binding signal (z-score) [25]: -0.346
- glycan array binding signal (z-score) [26]: -0.351
- glycan array binding signal (z-score) [27]: -0.352
- glycan array binding signal (z-score) [28]: -0.353
- glycan array binding signal (z-score) [29]: -0.354
- glycan array binding signal (z-score) [30]: -0.362
- glycan array binding signal (z-score) (Neu5Ac(a2-3)GalNAc): -0.363
- glycan array binding signal (z-score) [31]: -0.363
- glycan array binding signal (z-score) [32]: -0.354
- glycan array binding signal (z-score) [33]: -0.362
- glycan array binding signal (z-score) [34]: -0.363
- glycan array binding signal (z-score) [35]: -0.361
- glycan array binding signal (z-score) (Neu5Ac(a2-6)Gal): -0.361
- glycan array binding signal (z-score) (Neu5Ac(a2-6)Gal(b1-4)Glc): -0.359
- glycan array binding signal (z-score) [36]: -0.364
